About 2,200 (0.71%) of roughly 310,000 compounds showed an effect of 50% or more. The effect is printed as a negative number. The list shows a part of the results.
target: human ether-à-go-go-related gene (hERG) potassium channel (human, UniProt Q12809); assay: primary screen, population patch clamp on CHO cells stably expressing hERG
Sequence (Q12809 whole entry, looked up): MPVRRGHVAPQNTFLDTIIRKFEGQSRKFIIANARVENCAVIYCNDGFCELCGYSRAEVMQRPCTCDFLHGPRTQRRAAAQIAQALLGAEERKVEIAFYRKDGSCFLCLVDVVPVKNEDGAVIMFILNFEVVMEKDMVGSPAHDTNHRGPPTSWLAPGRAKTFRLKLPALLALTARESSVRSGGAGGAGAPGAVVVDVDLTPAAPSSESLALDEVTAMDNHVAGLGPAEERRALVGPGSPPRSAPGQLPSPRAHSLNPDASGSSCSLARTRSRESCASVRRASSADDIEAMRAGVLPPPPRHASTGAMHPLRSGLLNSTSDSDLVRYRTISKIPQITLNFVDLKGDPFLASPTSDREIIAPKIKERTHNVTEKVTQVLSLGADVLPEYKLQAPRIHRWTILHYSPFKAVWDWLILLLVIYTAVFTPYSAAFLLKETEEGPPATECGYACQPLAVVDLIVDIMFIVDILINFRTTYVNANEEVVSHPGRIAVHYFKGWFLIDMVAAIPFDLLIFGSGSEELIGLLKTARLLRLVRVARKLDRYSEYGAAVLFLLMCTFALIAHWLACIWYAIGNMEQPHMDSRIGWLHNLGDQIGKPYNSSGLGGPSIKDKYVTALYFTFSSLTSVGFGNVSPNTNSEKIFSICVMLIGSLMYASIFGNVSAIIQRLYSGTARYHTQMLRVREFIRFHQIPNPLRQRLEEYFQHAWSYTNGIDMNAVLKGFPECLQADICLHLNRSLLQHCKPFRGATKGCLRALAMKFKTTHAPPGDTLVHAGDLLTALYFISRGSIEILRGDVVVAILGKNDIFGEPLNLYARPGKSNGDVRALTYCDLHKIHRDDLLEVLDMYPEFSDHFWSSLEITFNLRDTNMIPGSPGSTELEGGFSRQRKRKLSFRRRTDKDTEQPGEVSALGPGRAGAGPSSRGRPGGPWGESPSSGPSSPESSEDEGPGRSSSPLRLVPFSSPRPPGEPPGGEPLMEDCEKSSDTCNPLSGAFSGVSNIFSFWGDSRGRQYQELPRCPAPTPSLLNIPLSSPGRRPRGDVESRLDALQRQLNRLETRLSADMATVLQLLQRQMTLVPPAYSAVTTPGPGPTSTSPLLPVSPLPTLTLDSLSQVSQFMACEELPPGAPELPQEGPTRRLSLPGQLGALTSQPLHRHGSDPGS

SMILES | hERG current change (%, negative = inhibition) at 1uM [%]
O=C1CCCN1CCCNC(=S)Nc1ccccc1 | -10.2
CCOc1ccccc1NC(=O)C1CCN(S(=O)(=O)c2cccc3cccnc23)CC1 | 2.98
CCCCc1c(O)nc(SCC(=O)c2ccccc2)n(-c2ccccc2C)c1=O | 14.3
CC(=O)Nc1ccc(N=Nc2ccccc2)cc1 | 3.83
CCCn1nnnc1-c1ccc(Cl)cc1 | 14.2
Cc1cccc(C)c1NC(=O)CCCSc1nnc(-c2ccc(F)cc2)n1-c1ccccc1 | -9.96
CCC(c1nnnn1Cc1ccco1)N(CCc1ccccc1)Cc1cc2ccc(OC)cc2[nH]c1=O (stereo not drawn) | 3.46
Cc1ccc(N(C)S(=O)(=O)c2ccc3c(c2)CC(C)N3C(=O)C2CC2)cc1 (stereo not drawn) | 15.2
CCc1ccc2[nH]c(=O)c(C(c3nnnn3CCOC)N3CCN(c4ccccc4)CC3)cc2c1 (stereo not drawn) | 6.35
COc1ccc(C(O)P(=O)(OCC(C)C)c2ccc(N(C)C)cc2)c(OC)c1 (stereo not drawn) | 4.26
COc1ccc2cc(C(C)c3nc4ccccc4c(=O)n3N)ccc2c1 (stereo not drawn) | 6.93
Cn1nnnc1SCC(=O)Nc1ccccc1[N+](=O)[O-] | -10.1
COc1cc(OC)cc(C(=O)Nc2c(F)cccc2F)c1 | 6.12
Fc1ccccc1-c1nc2ncccc2o1 | -3.64
O=C(COC(=O)/C=C/c1ccco1)NCc1ccccc1 | 15.6
COc1ccc(NC(=O)c2cc(C)nn2-c2ccccc2)cc1 | 14
O=C(CCNS(=O)(=O)c1ccccc1Cl)N1CCN(c2ccccn2)CC1 | -7.42
CC(Oc1ccc2ccccc2c1)C(=O)N/N=C/c1cccnc1 (stereo not drawn) | 8.17
O=C(NCCCO)C(=O)Nc1cc2c3c(c1)CCC(=O)N3CCC2 | 24.8
Cc1[nH]c2ccccc2c1C(C[N+](=O)[O-])c1ccco1 (stereo not drawn) | 4.88
CCCOc1ccc(N2C(=O)CC(N(Cc3ccc(S(N)(=O)=O)cc3)C(=O)CC)C2=O)cc1 (stereo not drawn) | -4.58
CCCCC(=O)Nc1ccc(Br)cn1 | 6.44
COc1ccc(NC(=O)CN(C)C(=O)c2cc(CN3C(=O)c4ccccc4C3=O)ccc2OC)cc1 | -3.11

SMILES | hERG current change (%, negative = inhibition) at 1uM [%]
C/C(=N\OCC(=O)N/N=C/c1ccc(C)cc1O)c1cccs1 | 9.1
COc1cccc(-c2nc(CS(=O)(=O)CC(=O)NC3CCCc4ccccc43)c(C)o2)c1 (stereo not drawn) | 13.2
CC(=O)Nc1ccc(S(=O)(=O)NCC2CCC(C(=O)NCCCOC(C)C)CC2)cc1 (stereo not drawn) | 15.8
COc1ccc(/C=C/C(=O)NC(=S)Nc2ccc(S(N)(=O)=O)cc2)cc1OC | 16.9
CCS(=O)(=O)N1CCC(C(=O)Nc2cc(C)ccc2O)CC1 | 10.9
COc1ccc([C@H]2CC(=O)C=C(c3ccc(C)c4ccccc34)C2)cc1 | 16.2
CC(=O)N(CC(=O)O)c1ccccc1 | 8.85
O=C(Nc1nc2ccc(F)cc2s1)c1ccccn1 | 9.3
COc1ccc(C(=O)NCCS(=O)(=O)NCc2ccc3c(c2)OCO3)cc1 | 10.7
Cc1cc([N+](=O)[O-])nn1CC(=O)NCc1ccco1 | 6.14
Cc1c(Cl)cccc1NC(=O)CN1CCN(CCO)CC1 | 7.01
CCCS(=O)(=O)N1CCC(C(=O)NCCCOCC)CC1 | 8.29
Fc1ccc(-n2cc(CNCCc3ccccn3)c(-c3ccccc3Cl)n2)cc1 | -78.2
COc1ccc(C(=O)Nc2ccc3ccccc3c2)cc1OC | 5.81
COC(=O)Nc1ccc(S(=O)(=O)NCCCCCC(=O)O)cc1 | -10.1
O=C(NCc1ccco1)[C@@H]1CCCN1C(=O)c1cccs1 | 0.875
Cc1nc(N2CCOCC2)nc(OCCN2CCOCC2)c1[N+](=O)[O-] | 6.76
O=C(c1ccccc1Br)N1CCCC(c2nc(-c3cccs3)no2)C1 (stereo not drawn) | 13.2
CS(=O)(=O)c1ccc(NC(=O)CCCc2nc3ccccc3c(=O)[nH]2)cc1 | 14.9
CCN(Cc1ccc(C#CCCO)cc1)CC1CCCN(CCc2cccc(F)c2)C1 (stereo not drawn) | -8.19
Cc1cc(=O)n2[nH]cnc2n1 | 8.28
Cn1c(=O)oc2cc(S(=O)(=O)N3CCN(C(=O)c4ccco4)CC3)ccc21 | -1.41

Reference: publication PMC4336329 (PLoS ONE, 2015)
